Assay results published in PubChem BioAssay AID889 (National Center for Advancing Translational Sciences (NCATS), 2007).
Several values for one entry are separate records, joined by “and”; a condition that tells them apart may be missing. Equal entries are not always repeated. The whole screen tested about 75,000 compounds, of which about 15 (0.02%) were called active. This list was built around the results that the source calls inconclusive (neither active nor inactive); the mix of calls is not that of the screen. Calls come from the whole dose curve; as a rule, active = well fitted inhibition curve with a large enough effect in the main read-out, with a control signal flat (not every such curve was filed as active); inconclusive = small, poorly fitted or top-dose-only effect, or a change in a side signal; inactive = flat fitted curve, though single readings scatter. Where the call is inconclusive, the potency comes from a doubtful curve fit. A note “side channel” means that the fit belongs to a control or component signal, not to the main read-out.
Potency is the fitted concentration of half-maximal effect; tags give direction and shape of the fitted curve or compound fluorescence and quenching.
Throughout, for activity change, negative = inhibition: % of control where 0% means no effect.

The compounds below were run against Caspase-7 (Homo sapiens) (UniProt P55210) (assay: qHTS Assay for Allosteric/Competitive Inhibitors of Caspase-7). Conditions: recombinant caspase-7, Ac-DEVD-AFC fluorescence rate; activity change, negative = inhibition: at 57.5 µM (top of the series) unless noted.
Sequence of UniProt P55210 (P55210 whole entry, looked up): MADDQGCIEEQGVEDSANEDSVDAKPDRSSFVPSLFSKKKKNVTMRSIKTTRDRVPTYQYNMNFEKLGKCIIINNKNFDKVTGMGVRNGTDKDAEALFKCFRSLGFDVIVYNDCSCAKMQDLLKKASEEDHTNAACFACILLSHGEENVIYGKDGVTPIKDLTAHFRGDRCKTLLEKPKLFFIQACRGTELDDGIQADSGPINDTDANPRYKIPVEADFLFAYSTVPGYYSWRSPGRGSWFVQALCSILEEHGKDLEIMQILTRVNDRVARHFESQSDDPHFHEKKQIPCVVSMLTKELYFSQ
From the text: NIH Molecular Libraries Screening Centers Network [MLSCN]
NIH Chemical Genomics Center [NCGC]
PI Name: Dr. James Wells,
Dr. Enrique Perez-Paya, Dr.Janice Williams, Dr. Dennis Wolan, a person
The caspases (Cysteine Aspartyl Protease) comprise a related family of 14 dimeric proteases that are critical mediators of apoptosis (programmed cell death) and inflammation. The caspases represent an important class of drug targets for stroke, ischemia, cancer and inflammatory diseases. […] One goal of this project was to identify compounds that act as allosteric inhibitors via stabilizing the procaspase form of the enzyme. Previous work in Well's laboratory has shown that such allosteric inhibitors can be identified and these act by binding at the dimer interface of enzyme (Hardy, Lam et al., 2004).
The biochemical assay was configured using purified caspase 7 at a high enzyme concentration to promote formation of the homodimers and thus facilitate the identification of allosteric inhibitors. The overall goal was to identify reversible inhibitors with better drug-like properties than the currently available set of aspartyl-containing peptidomimetics that covalently bind the active site. Caspase 7 was assayed using the profluorescent substrate Ac-DEVD-AFC. After initiation of the assay with substrate the plates were rapidly read using an automated robotic system (Kalypsys, Inc.) to maintain consistent timing. A kinetic mode of detection was used where the initial rate was collected (estimated final product formation was ~10%). Compounds were screened as a concentration-titration series that ranged from 57 uM to 0.7 nM. Below is the protocol used for caspase 7.
NCGC Assay Protocol Summary:
Caspase 7 was prepared in buffer (50 mM HEPES pH 7.5, 50 mM KCl, 200 mM NaCl, 10 mM DTT, 0.1% CHAPS) at a concentration of 66.6 nM and 3 uL was dispensed to all wells using black solid Kalypsys 1536-well plates. 20 nL of DMSO containing compounds was added using a pin-tool (Kalypsys Inc.) to columns 5-48. Then 20 nL of DMSO solution from a control plate was added to columns 1-4. Controls were: Column 1, 16 point titration with each concentration in duplicate (1:1 dilutions in DMSO; final starting concentration was 57 uM) of the caspase 7 inhibitor Ac-DEVD-CHO (Alexis Biochemicals); Column 2, a 16 point titration with each concentration in duplicate of the free AFC fluorophore prepared in DMSO (Alexis Biochemicals), final starting was 40 uM; Column 3 neutral (DMSO only) control; Column 4: DMSO alone, to serve as a negative control (no substrate was added). Then 1 uL of 20 uM the substrate Ac-DEVD-AFC (Alexis Biochemicals) prepared in the same buffer was dispensed to all wells except columns 2 and 4 and the plates were immediately transferred (< 1 min) to the Viewlux. The plates were then exposed using 405 nm excitation/520 nm emission filters for 4 sec and read at 20 sec intervals for 3 min. Final enzyme concentration was 50 nM and the final substrate concentration was 5 uM.
Concentration-response curves were fitted to the data calculated from slope of the linear regression of fluorescent intensity versus time (the rate). The concentration-effect curves were then classified based on curve quality (r2), response magnitude and degree of measured activity. […] Inconclusive compounds had appreciable concentration-dependent effects on both the measured rate and the interpolated basal fluorescence intensity at the start of the reaction but where the basal fluorescent intensity was marginal (e.g. < 10-fold). Inconclusive compounds also encompass highly fluorescent compounds (>100-fold increases in fluorescent intensities values relative to controls) where artificial concentration-dependent decreases in the rate occurred at high compound concentrations due to fluorescent interferences.
Keywords: Caspase 7, proteases, profluorescent, MLSMR, MLSCN, NIH Roadmap, qHTS, NCGC
With O=c1oc2c(CN3CCOCC3)c(O)c(Cl)cc2c2c1CCCC2 the Potency was inconclusive: 12.6 µM [fluorescent, side channel, partial curve]. For CN1CCc2c(sc3c2C(=O)NC(c2ccc(-c4cccc(Cl)c4)o2)N3)C1 (stereo not given), the Potency was inconclusive: 12.6 µM [fluorescent, side channel, partial curve]. With CCCCCCCCCCCCCCCCCCNC(=O)OC[C@@H](COP(=O)([O-])OCC[n+]1ccsc1)OC the “activity change, negative = inhibition” value was inactive: -1.04%. Cc1ccc(/C=C/C2=Cc3c(sc(NC(=O)CSc4n[nH]c(N)n4)c3C#N)C(C)(C)C2)o1 was tested, and the Potency was inconclusive: 25.1 µM [inhibitor, single point]. In the case of CN1CCc2c(sc3c2C(=O)NC(c2cccs2)N3)C1 (stereo not given), the Potency is reported as inconclusive: 20 µM [fluorescent, side channel, partial curve]. For Cc1ccc(N2C(=O)c3ccc(N)cc3C2=O)cc1, the Potency was inconclusive: 25.1 µM [fluorescent, partial curve]. For CC1=C(C(=O)OCCOC(C)C)C(c2cc3c(cc2Br)OCO3)C2=C(CCCC2=O)N1 (stereo not given), the “activity change, negative = inhibition” value was inactive: -22.6%. In the case of O=c1c(-c2ccc(F)cc2)nc2cnc(Oc3ccccc3)nc2n1C[C@H]1CCCO1, the Potency is reported as inconclusive: 25.1 µM [fluorescent, side channel, single point]. CN1CCN(c2ncc3nc(-c4cccs4)c(=O)n(Cc4ccc(F)cc4)c3n2)CC1 was tested, and the Potency was inconclusive: 3.16 µM [fluorescent, side channel, partial curve]. With COc1cccc(Nc2ncc3nc(CCc4ccccc4)c(=O)n(Cc4cccs4)c3n2)c1 the Potency was inconclusive: 20 µM [inhibitor, partial curve]. For Cc1sc2ccccc2[n+]1CCC(=O)O, the activity change, negative = inhibition was inactive: 1.46% [at 11.5 µM]. With CC1CCC2C(=O)OC(CN=[N+]=[N-])CN2C1c1ccc(Br)cc1 (stereo not given) the activity change, negative = inhibition was inactive: -0.984% [at 11.5 µM] [middle of 6 runs]. With CN(C)c1ncc2nc(CCc3ccccc3)c(=O)n(Cc3cccs3)c2n1 the Potency was inconclusive: 25.1 µM [fluorescent, side channel, partial curve]. With c1ccc2c(c1)nc1n2C2(N3CCOCC3)CCCC2C1N1CCOCC1 (stereo not given) the Potency was inconclusive: 31.6 µM [inhibitor, single point]. With Cc1ccc2cc3c(NC(=O)C(C)C)nn(C)c3nc2c1 the Potency was inconclusive: 25.1 µM [fluorescent, partial curve]. For O=c1c(-c2ccc(F)cc2)nc2cnc(Oc3cccc(Cl)c3)nc2n1C[C@H]1CCCO1, the Potency was inconclusive: 25.1 µM [inhibitor, single point]. In the case of CN(C)C(=O)c1ccc(-c2cncnc2-n2ccnc2)cc1, the “activity change, negative = inhibition” value is reported as inactive: -2.89%. In the case of COc1ccc2[nH]c(=O)c(CN(Cc3ccccc3)Cc3nnnn3CC3CCCO3)cc2c1 (stereo not given), the Potency is reported as inconclusive: 12.6 µM [fluorescent, side channel, partial curve]. In the case of CCOC(=O)c1c(-c2ccc(C)o2)csc1N, the Potency is reported as inconclusive: 20 µM [inhibitor, single point]. In the case of COc1ccc(-c2nc3cnc(Nc4cccc(OC)c4)nc3n(CCC#N)c2=O)cc1, the Potency is reported as inconclusive: 3.16 µM [fluorescent, full curve]. In the case of COc1cccc(C2C=C(c3ccc(OC)cc3OC)Nc3nnnn32)c1 (stereo not given), the Potency is reported as inconclusive: 25.1 µM [fluorescent, partial curve]. N=c1c(C(=O)NCc2ccco2)cc2c(=O)n3ccccc3nc2n1CCc1ccccc1 was tested, and the Potency was inconclusive: 5.01 µM [fluorescent, side channel, partial curve]. With CNc1ccc(C(O)(C(F)(F)F)C(F)(F)F)cc1C(O)(C(F)(F)F)C(F)(F)F the “activity change, negative = inhibition” value was inactive: -0.849%. For CC(=O)N1CSCC1C(=O)N1CCN(c2ccc(N3CCOCC3)nn2)CC1 (stereo not given), the Potency was inconclusive: 25.1 µM [fluorescent, partial curve]. Cn1c(C(=O)N2COCC2(C)C)cc2c(=O)n3ccccc3nc21 was tested, and the Potency was inconclusive: 15.8 µM [fluorescent, side channel, partial curve]. COC(c1ccccc1)C(C)C(OC)C(C)C(OC)C(C)C(C)=O (stereo not given) was tested, and the activity change, negative = inhibition was inactive: -0.504% [at 11.5 µM]. N=C1N=C(N)c2cc3ccccc3cc21 was tested, and the Potency was inconclusive: 25.1 µM [inhibitor, partial curve]. With N#Cc1cccc(-c2nc3cnc(N4CCNCC4)nc3n(C3CC3)c2=O)c1 the Potency was inconclusive: 3.98 µM [fluorescent, side channel, full curve]. CCCCn1c(=NC(=O)c2ccc3c(c2)OCO3)c(C#N)cc2c(=O)n3cccc(C)c3nc21 was tested, and the Potency was inconclusive: 3.16 µM [inhibitor, partial curve]. With CN1CCN(c2ncc3nc(-c4ccccc4)c(=O)n(CCc4ccccc4)c3n2)CC1 the Potency was inconclusive: 5.01 µM [fluorescent, side channel, partial curve]. With Cc1ccc2nc3c(cc(C(=O)NCc4cccnc4)c(=N)n3C(C)C)c(=O)n2c1 the Potency was inconclusive: 1 µM [fluorescent, side channel, full curve]. In the case of Cc1oc(-c2cccc(Cl)c2)nc1CN1CCCC(C(=O)NCCCN2CCOCC2)C1 (stereo not given), the “activity change, negative = inhibition” value is reported as inactive: 1.17%. In the case of Cc1cc(C)c2c(N)c(C(=O)Nc3nccs3)sc2n1, the Potency is reported as inconclusive: 3.98 µM [fluorescent, side channel, partial curve]. For CC(C)=C1C2C=CC1C1C(=O)N(c3ccc4c(c3)OCO4)C(=O)C21 (stereo not given), the “activity change, negative = inhibition” value was inactive: -2.56%. In the case of CCN(Cc1ccccc1)S(=O)(=O)c1ccc(C(=O)Nc2nnc(-c3ccccc3OC)o2)cc1, the “activity change, negative = inhibition” value is reported as inactive: -7.19%. With CCN1C(=O)[C@H]2[C@H]3[C@H](O)[C@H](O)C/C(=N/OC/C=C(\C)CCC=C(C)C)[C@H]3CC[C@@H]2C1=O the activity change, negative = inhibition was inactive: 1.06% [at 11.5 µM]. COC(=O)C1=C(C)NC(C)=C(C(=O)OC)C1c1ccccc1OCc1c(C)no[n+]1[O-] was tested, and the activity change, negative = inhibition was inconclusive: -56% [inhibitor] [at 0.00368 µM]. For CCN1c2ccccc2-c2nc3ccccc3n2C1c1ccccn1 (stereo not given), the Potency was inconclusive: 15.8 µM [fluorescent, partial curve]. For CC(=O)N1CCN(C2=Nc3cccc4cccc2c34)CC1, the Potency was inconclusive: 20 µM [fluorescent, side channel, partial curve]. For O=c1c(-c2ccccc2)nc2cnc(Nc3ccccc3)nc2n1C[C@H]1CCCO1, the Potency was inconclusive: 2.51 µM [fluorescent, partial curve]. O=c1c(-c2cccs2)nc2cnc(N3CCOCC3)nc2n1-c1ccccc1 was tested, and the Potency was inconclusive: 1.58 µM [fluorescent, side channel, full curve]. With Cc1ccc(C2C(C#N)=C(N)Oc3n[nH]c(C)c32)cc1 (stereo not given) the “activity change, negative = inhibition” value was inactive: 0.791%. In the case of Cc1cc(Cl)c(S(=O)(=O)Nc2ccc3c(c2)OCO3)cc1OCC(N)=O, the “activity change, negative = inhibition” value is reported as inactive: -3.15%. COC(=O)c1cc(-c2ccc3c(c2)OCO3)nc2ccccc12 was tested, and the Potency was inconclusive: 25.1 µM [fluorescent, side channel, partial curve]. With O=C(Nc1ccc2c(c1)OCO2)c1nn(-c2ccccc2)c(=O)c2ccccc12 the “activity change, negative = inhibition” value was inactive: -5.35%. With Oc1ccccc1C1=Nc2nc3ccccc3n2C(c2ccccc2)C1 (stereo not given) the “activity change, negative = inhibition” value was inactive: -5.76%. COC(=O)C1=C(C)N(Cc2ccccc2)C2=C(C(=O)c3ccccc3)C(c3ccccc3)[C@@](O)(C(=O)OC)C(=O)N2C1c1ccccc1 (stereo not given in full) was tested, and the Potency was inconclusive: 6.31 µM [inhibitor, single point]. CCN1C(=O)[C@H]2[C@H]3[C@H](O)[C@H](O)C/C(=N/NC(=O)OCc4ccccc4)[C@@H]3CC[C@@H]2C1=O was tested, and the activity change, negative = inhibition was inactive: -1.21% [at 11.5 µM]. With COc1ccccc1CN1CC2(CCN(C(=O)c3cnccn3)CC2)C1 the “activity change, negative = inhibition” value was inactive: 0.28%. N=c1c(C(=O)NCc2ccco2)cc2c(=O)n3ccccc3nc2n1Cc1ccc(Cl)cc1 was tested, and the Potency was inconclusive: 15.8 µM [fluorescent, side channel, partial curve]. With O=C(CSc1nc2nc(-c3cccs3)cc(C(F)(F)F)c2c(=O)[nH]1)NCc1ccco1 the Potency was inconclusive: 25.1 µM [inhibitor, single point]. O=c1c(-c2ccc(F)cc2)nc2cnc(N3CCOCC3)nc2n1CCc1ccccc1 was tested, and the Potency was inconclusive: 2.51 µM [fluorescent, full curve]. For COC(=O)c1c(C(=O)OC)c2n(c1C)CCC2, the “activity change, negative = inhibition” value was inactive: -0.404%. For Cc1ccc(Nc2nc(CSc3nnnn3C)cs2)cc1, the “activity change, negative = inhibition” value was inactive: -0.771%. In the case of CCCc1cc(-c2[nH]ncc2-c2ccc(C(=O)OCC)o2)c(O)cc1O, the Potency is reported as inconclusive: 25.1 µM [fluorescent, side channel, partial curve]. For COC(=O)c1sc2cnccc2c1N, the Potency was inconclusive: 15.8 µM [fluorescent, partial curve]. With O=C(Nc1ccc(N2CCN(C(=O)c3ccco3)CC2)cc1)c1ccc2c(c1)OCO2 the “activity change, negative = inhibition” value was inactive: -4.02%. For COCCn1c(=O)c(-c2cccs2)nc2cnc(OCc3ccccc3)nc21, the Potency was inconclusive: 2.51 µM [fluorescent, full curve]. O=c1c(O)c(-c2ccc(O)c(O)c2)oc2cc(O)ccc12 was tested, and the Potency was inconclusive: 15.8 µM [fluorescent, side channel, partial curve] and inconclusive: 20 µM [fluorescent, full curve]. CCN(CC)CCC[C@H](C)Nc1c2ccc(Cl)cc2nc2ccc(OC)cc12 was tested, and the Potency was inconclusive: 6.31 µM [fluorescent, side channel, full curve] and inconclusive: 5.01 µM [fluorescent, side channel, partial curve].
